From PubChem BioAssay AID1345083 (National Center for Advancing Translational Sciences (NCATS), 2018)
In all, about 94,000 compounds went through this assay and about 6,200 (6.6%) were called active. Inconclusive results, whose numbers are uncertain, are shown with a selection of clear calls. Calls come from the whole dose curve; as a rule, active = well fitted inhibition curve with a large enough effect; inconclusive = small, poorly fitted or top-dose-only effect; inactive = flat fitted curve, though single readings scatter. A potency beside an inconclusive call is a rough fit, not a confirmed value.

assay: Cytotoxic Profiling in HEK 293 Cell Line of Diverse Libraries Using Quantitative High-Throughput Screening; conditions: HEK 293 viability, ATP luminescence (CellTiter-Glo), 48-72 h; series mostly up to 115 µM; note: nearly all actives have a fitted effect of over 60% in size
Procedure, shortened: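 Viability of HEK 293 cells, plated at 250 cells/well, was judged by cellular ATP after compound treatment for 48 or 72 hr. Luminescence was imaged 10 min after CellTiter-Glo addition at room temperature.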
Potency is the fitted concentration of half-maximal effect; tags give direction and shape of the fitted curve.

Compound	Potency
COc1cc(F)cc(-c2ncc3c(n2)OCCN(C)C3=O)c1	inconclusive: 79.4 µM [inhibitor, partial curve, poor fit]
CC(C)CN(Cc1cccnc1)C1CN(S(=O)(=O)Cc2ccccc2F)C1	inconclusive: 50.1 µM [inhibitor, partial curve, poor fit]
CN1C(=O)c2cncnc2OCC1CNC(=O)Cc1cccs1 (stereo not given)	inconclusive: 126 µM [inhibitor, single point]
c1ccc(-c2nnc3n2CCN(Cc2ccc4ccccc4c2)C3)cc1	inconclusive: 89.1 µM [inhibitor, partial curve, poor fit]
CC(NC(=O)c1ccc2oc(-c3ccc(C(F)(F)F)cc3)nc2c1)c1cnn(C)c1 (stereo not given)	inconclusive: 31.6 µM [inhibitor, full curve]
CCCCCN(CCC(=O)NCCCOC)C(=O)c1ccoc1	inconclusive: 100 µM [inhibitor, single point]
CC(C)NC(=O)c1cc(-c2ccccc2F)cc2c1OCCN2Cc1cccnc1	active: 89.1 µM
Cc1ccc(NC(=O)Cn2c(N3CCC(C)CC3)nc(C)cc2=O)c(C)c1	inconclusive: 39.8 µM [inhibitor, full curve]
O=C(Cc1ccc(C(F)(F)F)cc1)N1CC(COc2ccccc2)C2(C1)CN(C(=O)c1cn[nH]c1)C2 (stereo not given)	inconclusive: 50.1 µM [inhibitor, partial curve, poor fit]
COc1ccc(Cl)cc1NC(=O)CN1C(=O)NC2(CCC(C)CC2)C1=O (stereo not given)	inconclusive: 79.4 µM [inhibitor, single point]
COC1C(=O)N(C2CCN(S(=O)(=O)c3cn(C)cn3)CC2)C12CCOCC2 (stereo not given)	inactive
O=C(N1CCOCC1)N1C2CCC1CN(c1ccc(C(F)(F)F)cc1)C2	inconclusive: 10 µM [inhibitor, full curve, poor fit]
O=C(NCCc1ccccc1)N1CCC(c2noc(-c3ccccc3)n2)C1 (stereo not given)	inconclusive: 35.5 µM [inhibitor, partial curve, poor fit]
O=C(Nc1ccc(F)cc1)c1cccn2nccc12	inactive
COc1ccc(CNC(=O)N2CCC3(CC2)CC(N(C)Cc2ccccc2)CCO3)cc1 (stereo not given)	inactive
COc1ccccc1Cn1c(=O)c(C(=O)NCC(F)(F)F)nc2cccnc21	inactive
O=C1NCc2ccccc2CC12CCN(Cc1ccc(Cl)s1)CC2	inconclusive: 79.4 µM [inhibitor, partial curve]
COc1ccc(F)cc1-c1ccc(CN2CCC(NC(=O)NC(C)C)C2)cc1 (stereo not given)	inconclusive: 44.7 µM [inhibitor, partial curve, poor fit]
CC(=O)N1C[C@H](NC(=O)c2cccc(C)c2Cl)[C@@H](C(C)C)C1	inactive
COCCN1C(=O)N(Cc2cccc3ccccc23)C(=O)C12CCN(Cc1cn(C)nc1C)CC2	inactive
COc1ccc2nc(C[C@@H]3C[C@@H](C(C)C)[C@H](CNC(=O)Nc4ccc(F)cc4)C=C3C)[nH]c2c1	active: 28.2 µM
O=C1N(c2ccccc2)c2ccccc2C12CCN(Cc1ccc(F)cc1)C2 (stereo not given)	inconclusive: 50.1 µM [inhibitor, partial curve, poor fit]

Compound	Potency
O=C(Nc1cccc(Br)c1)C1CCN(c2cc(C(F)(F)F)ncn2)CC1	active: 44.7 µM
CC(C)CCN1CCc2c(sc3ncnc(N4CCOCC4)c23)C1	inconclusive: 89.1 µM [inhibitor, single point]
CN(C)C(=O)CCc1ccc2c(c1)CN(C(=O)CC1CCCC1)CCO2	inconclusive: 89.1 µM [inhibitor, single point]
CCC1=C(C(=O)OC)C(c2ccccc2C)N2C(CC(=O)NC3CC3)=CSC2=N1 (stereo not given)	inconclusive: 56.2 µM [inhibitor, partial curve, poor fit]
CCC(O)c1cc2n(n1)CCN(c1ncc(F)c(N3CCOCC3)n1)C2 (stereo not given)	inconclusive: 44.7 µM [inhibitor, partial curve, poor fit]
O=C1COc2ccc(OCc3cncs3)nc2CN1Cc1ccccc1	inconclusive: 100 µM [inhibitor, partial curve, poor fit]
CN1CCC(OC2CCN(C(=O)c3cccc(Br)c3)CC2)CC1	inactive
O=C(c1cncc(Br)c1)N1CCCN(c2ccnc3ccnn23)CC1	inconclusive: 50.1 µM [inhibitor, partial curve, poor fit]
COCC(=O)Nc1ccc(-c2c(C(C)C)nn(-c3cccc(F)c3)c2OC(C)=O)cc1	inconclusive: 89.1 µM [inhibitor, single point]
CCn1c(CO)nnc1C1CC(NC(=O)c2cnn3cc(C)cnc23)C1 (stereo not given)	inactive
COc1cccc(-c2nc(N3CCOCC3)cc3c2CN(Cc2ccccc2)C3=O)c1OC	inconclusive: 79.4 µM [inhibitor, single point]
Cc1ccc(CNC(=O)N2CCC(Oc3ccc(-c4noc(C)n4)cc3)C2)cc1 (stereo not given)	inconclusive: 44.7 µM [inhibitor, partial curve, poor fit]
CSc1ccc(-c2cccc(CN3CCC(NC(=O)N(C)C)CC3)c2)cc1	inconclusive: 50.1 µM [inhibitor, partial curve, poor fit]
Fc1ccc(-c2cc(CC3(NCc4cccc5c4OCO5)COC3)no2)cc1	inconclusive: 100 µM [inhibitor, partial curve, poor fit]
O=C(C1CCCC1)N1CCC(C(=O)N2CCC(N3CCCC3=O)CC2)CC1	inactive
COC(=O)N(C)Cc1cccc(N2CCN(S(=O)(=O)c3cccc4ccccc34)CC2)c1F	inconclusive: 15.8 µM [inhibitor, full curve, poor fit]
Cc1ccc(-c2cccc(CN3CCCC(NC(=O)c4ccncc4)C3)c2)cc1Cl (stereo not given)	inconclusive: 12.6 µM [inhibitor, full curve, poor fit]
O=C(NCCN1CCNC1=O)c1cnc2n1CCN(Cc1cccnc1)CC2	inconclusive: 126 µM [inhibitor, single point]
CC(C)(C)c1ccc(C(=O)N2CCC3(C2)NC(=O)N(Cc2ccc(Cl)cc2)C3=O)cc1 (stereo not given)	inconclusive: 8.91 µM [inhibitor, full curve, poor fit]
CN(Cc1cccnc1)c1nc2c(c(=O)[nH]1)CCN(Cc1ccc(F)cc1F)CC2	inconclusive: 31.6 µM [inhibitor, full curve, poor fit]
COc1cccc(CC(=O)N[C@H](Cc2ccccc2)C(=O)N2CCOCCNC(=O)CC2)c1	inactive
CCN1c2cc(C(=O)NC3CCCCC3)ccc2C(=O)N2CCCCC21 (stereo not given)	inconclusive: 79.4 µM [inhibitor, partial curve, poor fit]

Compound	Potency
CC(C)NC(=O)C[C@@H]1O[C@H](CNC(=O)NC(C)C)[C@@H](O)[C@H]1O	inactive
O=C(c1ccc(Cl)cc1)N1CC(c2nnc(-c3ccncc3)o2)C2(CCOCC2)C1 (stereo not given)	inactive
CN1C(=O)c2cncnc2OCC1CNC(=O)c1ccc(Cl)cc1 (stereo not given)	inconclusive: 50.1 µM [inhibitor, partial curve, poor fit]
COc1ccc(CNC(=O)c2noc(-c3ccc(F)cc3)n2)c(OC)c1	inconclusive: 79.4 µM [inhibitor, single point]
COCCCNC(=O)N1C[C@@H]2CCCN3CCC[C@@H]([C@H]23)[C@H]1CCCC(=O)Nc1ccccc1	inactive
Cc1oc2c(c1C(=O)NCc1cccnc1)CN(Cc1ccc(F)cc1)CC2	inconclusive: 3.55 µM [inhibitor, full curve, poor fit]
O=C1CC2CCN(Cc3nc4ccccc4s3)CC2CCN1 (stereo not given)	inactive
COc1ccc(S(=O)(=O)Nc2ccc(C)n(CC(=O)NCc3ccc(C)o3)c2=O)cc1	inactive
Cc1ccc(CN2C(=O)[C@@H]3C[C@@H](O)CN3C3(CN(Cc4cccs4)C3)C2=O)o1	inactive
O=C(Cc1ccccn1)N1CCCC(C(=O)N2CCC(c3ccccc3)CC2)C1 (stereo not given)	inactive
COc1cccc(Nc2csc(CN3CCCC(C)(NC(C)=O)C3)c2)c1 (stereo not given)	inconclusive: 100 µM [inhibitor, partial curve]
COc1ccc(NC(=O)Cn2cccc2-c2nc(-c3ccc4c(c3)OCO4)no2)cc1OC	inconclusive: 89.1 µM [inhibitor, single point]
COc1ccc2c(C)c(C(=O)N3CCCCC3c3cc(C)on3)oc2c1 (stereo not given)	inconclusive: 28.2 µM [inhibitor, full curve]
O=C(c1cc(-c2cccc(C(F)(F)F)c2)c2cccn2n1)N1CCOCC1	inconclusive: 56.2 µM [inhibitor, partial curve, poor fit]
CNC(=O)c1cc(C)nc2onc(C3CCCN3C(=O)Cc3ccccn3)c12 (stereo not given)	inactive
CCOc1ccc(N(CC)C(=O)c2ccc3c(c2)N(S(C)(=O)=O)CC3)cc1	inconclusive: 50.1 µM [inhibitor, partial curve, poor fit]
COc1ccc(C(=O)NC2CCN(c3ccnc4ccnn34)C2)cc1 (stereo not given)	active: 50.1 µM
CCCCN(C)C(=O)c1csc(N2CCN(c3ccccc3)CC2)n1	active: 35.5 µM
CC(=O)Nc1ccc(OCC(=O)NC(C)c2ccccc2)nc1 (stereo not given)	inactive
COc1ccccc1-c1ccc(C(=O)N2CCC(C(=O)N3CCN(Cc4ccccc4)CC3)CC2)cc1	inconclusive: 20 µM [inhibitor, partial curve, poor fit]
O[C@H]1[C@H](NCc2ccco2)[C@H]2CO[C@H](O2)[C@@H]1N1CCC(Cc2ccccc2)CC1	inconclusive: 79.4 µM [inhibitor, partial curve, poor fit]
